Test results taken from the RNAGym collection of RNA variant scans (doi:10.1073/pnas.2313332121).
Variants at the floor of the assay are shown more often than the library holds them.

B1: TPR 5TU (parent)
chain: GGAUCUUCUCGAUCUAACAAAAAAGACAAAUCUGCCACAAAGCUUGAGAGCAUCUUCGGAUGCAGAGGCGGCAGCCUUCGGUGGCGCGAUAGCGCCAACGUUCUCAACUAUGACACGCAAAACGCGUGCUCCGUUGAAUGGAGUUUAUCAUG

Variants of: B1
Assay: polymerase ribozyme fitness, log enrichment relative to wild type (log ratio); higher = more active; in vitro selection for triplet polymerase activity
Outline: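 Only genotypes with ≥10 input reads and ≥1 read per output were kept after Illumina sequencing of input and output libraries. These libraries were PCR-built, transcribed mutants of each subunit of a heterodimeric triplet polymerase ribozyme, each put through one triplicate in vitro selection round with frozen incubation at −7 °C, gel excision of extended constructs, streptavidin-bead capture and RT-PCR. Fitness is a logarithmic ratio of genotype enrichment to wild-type enrichment, from inverse-variance-weighted replicate averages, with the logarithm in base 2.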

Variant | polymerase ribozyme fitness (log ratio)
A39G G42A C87U U102A U134G | ≤ -4.2
A39G G42A G88C | ≤ -4.2
A39G G42A U53A U56A G84U C85G U104G | ≤ -4.2
A39G G42C A47C A91U C93U U101G A119U C125U G133U G136A | ≤ -4.2
A39G G42C A64U G84C C85U C103G C108U G117C | ≤ -4.2
A39G G42C C43G G50C C85U A89C A115G C132G U146C U148G | ≤ -4.2
A39G G46A C63A C85G U134A | ≤ -4.2
A39G G46A U78A A142U | ≤ -4.2
A39G G48A C54A G88A C125U U134G U145C | ≤ -4.2
A39G G48U A52U C79G A91C G143A | ≤ -4.2
A39G G50C C54A C76U C87A G88C | ≤ -4.2
A39G G50C G65C A110G A120G | ≤ -4.2
A39G G50U C123A G128U | ≤ -4.2
A39G G50U G71U G83A U127C | ≤ -4.2
A39G G58C C85A G88C C118A | ≤ -4.2
A39G G62U C75U G92C A98G G152U | ≤ -4.2
A39G G68A G81C G86C A106U | ≤ -4.2
A39G G70A U77G G141A A142C | ≤ -4.2
A39G G80A G126U A138G | ≤ -4.2
A39G G83A G117U A120C G152U | -4.11
A39G G88A A122U G143U | ≤ -4.2
A39G G88A A142U | ≤ -4.2
A39G G88A G100U C114A G124U U148C | ≤ -4.2
A39G G88C | ≤ -4.2

Variant | polymerase ribozyme fitness (log ratio)
A39G G94C A110G C125G A150G | ≤ -4.2
A39G U44A A91U | ≤ -4.2
A39G U55A C96A A97U | -3.27
A39G U55A G71A G92C C96U C131U C149A | ≤ -4.2
A39G U55A G100U G128U A142U | ≤ -4.2
A39G U55G G83C G88C G100C G140U G141A U145G | ≤ -4.2
A39G U56G C69U C103G U130G | ≤ -4.2
A39G U61A G68A C93U | ≤ -4.2
A39G U61A G71A C93G G143U U145A | ≤ -4.2
A39G U61A G81C U101A A150U | ≤ -4.2
A39G U78G G86U C123G U139C | ≤ -4.2
A39G U101C | -1.89
A39U A40C A52U C72G C87U U104G C118U A122G | ≤ -4.2
A39U A40C C79A U82C C96A U109G A119U G143A | ≤ -4.2
A39U A40U A52C U55C G70C U134G | ≤ -4.2
A39U A40U C54U G84C C85A G92C G128A | ≤ -4.2
A39U A41U U56A C93A C105A G117U A120G G133A | ≤ -4.2
A39U A47C U56A A89G C95U A142G | ≤ -4.2
A39U A47G G50A A52G U53A C87U G88C C99G U135G | ≤ -4.2
A39U A47G U139G U151G | ≤ -4.2
A39U A49C G81U G84U C87U A115U | ≤ -4.2
A39U A49C U55A C87U C116G | ≤ -4.2
A39U A49G G88C A121G G141C | ≤ -4.2
A39U A49U G59C C132U | ≤ -4.2

Variant | polymerase ribozyme fitness (log ratio)
A39U A52C U53G G70C C114G C131U G141C | ≤ -4.2
A39U A52C U90G A98G | ≤ -4.2
A39U A52G A66C C125U C132G | ≤ -4.2
A39U A52G G74U U90A A122G C125G C129U | ≤ -4.2
A39U A52U C54A U55A A60G U135A U151G | ≤ -4.2
A39U A52U C76G G83A | ≤ -4.2
A39U A60C U101C | ≤ -4.2
A39U A60G A137U | -4.19
A39U A60G C87G C108A A115U | ≤ -4.2
A39U A60U G70A | ≤ -4.2
A39U A60U G84U G112A A115G A122G G124A | ≤ -4.2
A39U A60U U146A | -3.58
A39U A64G G86C | ≤ -4.2
A39U A73U | -4.11
A39U A73U C85U C95G U145A | ≤ -4.2
A39U A91C A122U | ≤ -4.2
A39U A122C U127G G140C | ≤ -4.2
A39U C43G U61G G71A C85G C103A A107G | ≤ -4.2
A39U C43U U111G | ≤ -4.2
A39U C51A U82G C93G A147C | ≤ -4.2
A39U C51G U90A C105G C114U U127G G133C | ≤ -4.2
A39U C51U A97C C105U U144G U145G | ≤ -4.2
A39U C54U G74A G86U A98G U111C C129U U139A | ≤ -4.2
A39U C54U G74U C93G G100A C105G | ≤ -4.2

Variant | polymerase ribozyme fitness (log ratio)
A39U C57A A137U A142G | ≤ -4.2
A39U C57A G100U | ≤ -4.2
A39U C63U C75G C76A C87G C105U C129U G143C | ≤ -4.2
A39U C69U C75U G84U U127G | ≤ -4.2
A39U C69U C95U C129G | ≤ -4.2
A39U C76A G83U C125U | ≤ -4.2
A39U C76U C79A G83U C118A A120C | ≤ -4.2
A39U C79G C96G A106G A121G U135G U139G | ≤ -4.2
A39U C85A U109G C114U C132A | ≤ -4.2
A39U C93U | -3.36
A39U C103G | -4.14
A39U C108G U146C | ≤ -4.2
A39U C118U | -2.03
A39U G42U C93U G94C C96U | ≤ -4.2
A39U G42U G50C G59A A73G G128U | ≤ -4.2
A39U G46A A66G C69A A89U A122G | ≤ -4.2
A39U G46C G48A G50C U56A G84U | ≤ -4.2
A39U G48A A60U G83C C103A U134G | ≤ -4.2
A39U G48C G50A G58C G68A C87G A107C A137C A150C | ≤ -4.2
A39U G48C G67A C85G G86U G88A G92A C118G | ≤ -4.2
A39U G50A C85U A89G C114G G124U A150C | ≤ -4.2
A39U G50A U56A C76A G86U U90C U134G | ≤ -4.2
A39U G50C G83U C87A C95G A138G | ≤ -4.2
A39U G50U A73G C85A C108A G141C | ≤ -4.2

Variant | polymerase ribozyme fitness (log ratio)
A39U G59A C69A C79G C96A | ≤ -4.2
A39U G62A | -2.58
A39U G68A C87U G92U | ≤ -4.2
A39U G74U G81C A91U A98G C99U G124A | ≤ -4.2
A39U G80A C123G | -2.65
A39U G80C A91U | ≤ -4.2
A39U G84A G100U C103G C105G G141C | ≤ -4.2
A39U G84C | -3.33
A39U G86A C93A U104G | ≤ -4.2
A39U G86U C114U A120U G140A | ≤ -4.2
A39U G88C A121G G141C A147U | ≤ -4.2
A39U U44A U56C A60C G62U G83A A107U | ≤ -4.2
A39U U44G U109C | ≤ -4.2
A39U U45C C93U | ≤ -4.2
A39U U45G C93G G100C A120U | ≤ -4.2
A39U U45G U61A A97C C103G A138U | ≤ -4.2
A39U U45G U90A A91C C93U C105G | ≤ -4.2
A39U U53A | -2.91
A39U U53A U56C A60C U61A G86U A89G | -4.17
A39U U55G G58U U78G C85U U90C C105A G136U A142C | ≤ -4.2
A39U U56A C93U | -3.55
A39U U61A A64C G86C | ≤ -4.2
A39U U139A | -3.87
A39U U144C | -2.52

Variant | polymerase ribozyme fitness (log ratio)
A40C A41C G50A C79A C87U | ≤ -4.2
A40C A41C G59A G70U G84A C85A C105G G141C G143U | ≤ -4.2
A40C A41C U45A A115U A120G U144C | ≤ -4.2
A40C A41U C57U G83U A91G C93G G126C | ≤ -4.2
A40C A41U G42A C75G G94C | ≤ -4.2
A40C A41U U78C G80A C85U U145C | ≤ -4.2
A40C A47C A60C G71U A91C C93U | ≤ -4.2
A40C A49C C87G A98U G143A U151C | ≤ -4.2
A40C A49C C95A C99U C105U C108G | ≤ -4.2
A40C A49G G50A A73G G94A G143C | ≤ -4.2
A40C A49U G92U A106G G140C | ≤ -4.2
A40C A52C C54U C93U C108G C118U | ≤ -4.2
A40C A52C G81A G83A C93G | ≤ -4.2
A40C A52C U55C G68A C87U C105G A142U G152A | ≤ -4.2
A40C A52U A60U C93G A150U | ≤ -4.2
A40C A60U | 0.0412
A40C A66C C75A G81A G92C C95G | ≤ -4.2
A40C A66U C95A G140U U148A G152U | ≤ -4.2
A40C A66U G84A G133U G143C | ≤ -4.2
A40C A73G C87G C96A C118U A138C | ≤ -4.2
A40C A113U C118U G136A | -2.68
A40C A119C | 0.851
A40C C51A A52C C57U G65U U77C G94U G112A | ≤ -4.2
A40C C51A G86C U139C | ≤ -4.2

Variant | polymerase ribozyme fitness (log ratio)
A40C C51U C57A G94U C114G A150G | ≤ -4.2
A40C C51U G92A G128A | ≤ -4.2
A40C C54A A60G A113C G136A A147C U148G | ≤ -4.2
A40C C54A A89U G94U | -2.57
A40C C54A U55G A98G C105U C108U | ≤ -4.2
A40C C54G C93A C114U | ≤ -4.2
A40C C54U G86A A91U U101G A106U | ≤ -4.2
A40C C54U G141U | 0.7
A40C C57U | 0.521
A40C C57U U109A U130G | ≤ -4.2
A40C C69G G80A | -0.716
A40C C75A C114G | ≤ -4.2
A40C C76U | 0.0931
A40C C85A G92U A119C A147C | ≤ -4.2
A40C C85G | -1.95
A40C C85U | -0.549
A40C C85U C95U A98G G126U | -1.37
A40C C87A | -3.55
A40C C87A G128U | ≤ -4.2
A40C C87G U146C C149G | ≤ -4.2
A40C C87U G117C | -0.313
A40C C87U U109C C118A G133C | ≤ -4.2
A40C C93G A98C C125U | ≤ -4.2
